Reference: the supplement of paper PMC12230231

Test system: SIVsab (simian immunodeficiency virus of sabaeus monkeys), single-cycle GFP reporter, in CRFK cells
Test: enrichment among uninfected cells over input (fold); higher = stronger restriction
Settings: library: human / rhesus combinations
Procedure: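 Pools of CRFK cells expressing variants of the TRIM5α v1 loop were challenged with the single-cycle reporter, sorted by GFP and sequenced; mean of two replicates.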

| Sequence | enrichment |
| --- | --- |
| MASGILVNVKEEVTCPICLELLTQPLSLDCGHSFCQACLTANHKKSMLDKGESSCPVCRISYQPENIRPNRHVANIVEKLREVKLSPEGQKVDHCARHGEKLLLFCQEDGKVICWLCERSQEHRGHHTFLTEEVAREYQVKLQAALEMLRQKQQEAEELEADIREEKASWKTQIQYDKTNVLADFEQLRDILDWEESNELQNLEKEEEDILKSLTNSETEMVQQTQSLRELISDLEHRLQGSVMELLQGVDGVIKRTENVTLKKPETFPKNQRRVFRAPDLKGMLEVFRELTDVRRYWVDVTVAPNNISCAVISEDKRQVSSPKPQIIYGARGTLFTFPSLTNFNYCTGILGSQSITSGKHYWEVDVSKKTAWILGVCAGFQPDAMCNIEKNENYQPKYGYWVIGLEEGVKCSAFQDSSFHTPSVPFIVPLSVIICPDRVGVFLDYEACTVSFFNITNHGFLIYKFSHCSFSQPVFPYLNPRKCGVPMTLCSPSS [human TRIM5α, 330-340 = GARGTLFTFPSLT] | 0.303 ± 0.14 |
| MASGILVNVKEEVTCPICLELLTQPLSLDCGHSFCQACLTANHKKSMLDKGESSCPVCRISYQPENIRPNRHVANIVEKLREVKLSPEGQKVDHCARHGEKLLLFCQEDGKVICWLCERSQEHRGHHTFLTEEVAREYQVKLQAALEMLRQKQQEAEELEADIREEKASWKTQIQYDKTNVLADFEQLRDILDWEESNELQNLEKEEEDILKSLTNSETEMVQQTQSLRELISDLEHRLQGSVMELLQGVDGVIKRTENVTLKKPETFPKNQRRVFRAPDLKGMLEVFRELTDVRRYWVDVTVAPNNISCAVISEDKRQVSSPKPQIIYQARGTRFTFQSLTNFNYCTGILGSQSITSGKHYWEVDVSKKTAWILGVCAGFQPDAMCNIEKNENYQPKYGYWVIGLEEGVKCSAFQDSSFHTPSVPFIVPLSVIICPDRVGVFLDYEACTVSFFNITNHGFLIYKFSHCSFSQPVFPYLNPRKCGVPMTLCSPSS [human TRIM5α, 330-340 = QARGTRFTFQSLT] | 0.184 ± 0.011 |
| MASGILVNVKEEVTCPICLELLTQPLSLDCGHSFCQACLTANHKKSMLDKGESSCPVCRISYQPENIRPNRHVANIVEKLREVKLSPEGQKVDHCARHGEKLLLFCQEDGKVICWLCERSQEHRGHHTFLTEEVAREYQVKLQAALEMLRQKQQEAEELEADIREEKASWKTQIQYDKTNVLADFEQLRDILDWEESNELQNLEKEEEDILKSLTNSETEMVQQTQSLRELISDLEHRLQGSVMELLQGVDGVIKRTENVTLKKPETFPKNQRRVFRAPDLKGMLEVFRELTDVRRYWVDVTVAPNNISCAVISEDKRQVSSPKPQIIYQARGTRFTFQTFVNFNYCTGILGSQSITSGKHYWEVDVSKKTAWILGVCAGFQPDAMCNIEKNENYQPKYGYWVIGLEEGVKCSAFQDSSFHTPSVPFIVPLSVIICPDRVGVFLDYEACTVSFFNITNHGFLIYKFSHCSFSQPVFPYLNPRKCGVPMTLCSPSS [human TRIM5α, 330-340 = QARGTRFTFQTFV] | 0.157 ± 0.024 |
| MASGILVNVKEEVTCPICLELLTQPLSLDCGHSFCQACLTANHKKSMLDKGESSCPVCRISYQPENIRPNRHVANIVEKLREVKLSPEGQKVDHCARHGEKLLLFCQEDGKVICWLCERSQEHRGHHTFLTEEVAREYQVKLQAALEMLRQKQQEAEELEADIREEKASWKTQIQYDKTNVLADFEQLRDILDWEESNELQNLEKEEEDILKSLTNSETEMVQQTQSLRELISDLEHRLQGSVMELLQGVDGVIKRTENVTLKKPETFPKNQRRVFRAPDLKGMLEVFRELTDVRRYWVDVTVAPNNISCAVISEDKRQVSSPKPQIIYQARGTRYTFPSFTNFNYCTGILGSQSITSGKHYWEVDVSKKTAWILGVCAGFQPDAMCNIEKNENYQPKYGYWVIGLEEGVKCSAFQDSSFHTPSVPFIVPLSVIICPDRVGVFLDYEACTVSFFNITNHGFLIYKFSHCSFSQPVFPYLNPRKCGVPMTLCSPSS [human TRIM5α, 330-340 = QARGTRYTFPSFT] | 0.258 ± 0.069 |

Same assay, conditions: library: insertions and deletions

| Sequence | enrichment |
| --- | --- |
| MASGILVNVKEEVTCPICLELLTQPLSLDCGHSFCQACLTANHKKSMLDKGESSCPVCRISYQPENIRPNRHVANIVEKLREVKLSPEGQKVDHCARHGEKLLLFCQEDGKVICWLCERSQEHRGHHTFLTEEVAREYQVKLQAALEMLRQKQQEAEELEADIREEKASWKTQIQYDKTNVLADFEQLRDILDWEESNELQNLEKEEEDILKSLTNSETEMVQQTQSLRELISDLEHRLQGSVMELLQGVDGVIKRTENVTLKKPETFPKNQRRVFRAPDLKGMLEVFRELTDVRRYWVDVTVAPNNISCAVISEDKRQVSSPKPQIIYGARGTRYQTFLGSQSITSGKHYWEVDVSKKTAWILGVCAGFQPDAMCNIEKNENYQPKYGYWVIGLEEGVKCSAFQDSSFHTPSVPFIVPLSVIICPDRVGVFLDYEACTVSFFNITNHGFLIYKFSHCSFSQPVFPYLNPRKCGVPMTLCSPSS [human TRIM5α, 9-codon deletion at 340] | 1.38 ± 0.39 |
| MASGILVNVKEEVTCPICLELLTQPLSLDCGHSFCQACLTANHKKSMLDKGESSCPVCRISYQPENIRPNRHVANIVEKLREVKLSPEGQKVDHCARHGEKLLLFCQEDGKVICWLCERSQEHRGHHTFLTEEVAREYQVKLQAALEMLRQKQQEAEELEADIREEKASWKTQIQYDKTNVLADFEQLRDILDWEESNELQNLEKEEEDILKSLTNSETEMVQQTQSLRELISDLEHRLQGSVMELLQGVDGVIKRTENVTLKKPETFPKNQRRVFRAPDLKGMLEVFRELTDVRRYWVDVTVAPNNISCAVISEDKRQVSSPKPQIIYGARGTRVNFNYCTGILGSQSITSGKHYWEVDVSKKTAWILGVCAGFQPDAMCNIEKNENYQPKYGYWVIGLEEGVKCSAFQDSSFHTPSVPFIVPLSVIICPDRVGVFLDYEACTVSFFNITNHGFLIYKFSHCSFSQPVFPYLNPRKCGVPMTLCSPSS [human TRIM5α, 4-codon deletion at 336] | 0.528 ± 0.43 |
| MASGILVNVKEEVTCPICLELLTQPLSLDCGHSFCQACLTANHKKSMLDKGESSCPVCRISYQPENIRPNRHVANIVEKLREVKLSPEGQKVDHCARHGEKLLLFCQEDGKVICWLCERSQEHRGHHTFLTEEVAREYQVKLQAALEMLRQKQQEAEELEADIREEKASWKTQIQYDKTNVLADFEQLRDILDWEESNELQNLEKEEEDILKSLTNSETEMVQQTQSLRELISDLEHRLQGSVMELLQGVDGVIKRTENVTLKKPETFPKNQRRVFRAPDLKGMLEVFRELTDVRRYWVDVTVAPNNISCAVISEDKRQVSSPKPQIIYGARGTRYQTFVNILGSQSITSGKHYWEVDVSKKTAWILGVCAGFQPDAMCNIEKNENYQPKYGYWVIGLEEGVKCSAFQDSSFHTPSVPFIVPLSVIICPDRVGVFLDYEACTVSFFNITNHGFLIYKFSHCSFSQPVFPYLNPRKCGVPMTLCSPSS [human TRIM5α, 6-codon deletion at 342] | 2.13 ± 1.6 |
| MASGILVNVKEEVTCPICLELLTQPLSLDCGHSFCQACLTANHKKSMLDKGESSCPVCRISYQPENIRPNRHVANIVEKLREVKLSPEGQKVDHCARHGEKLLLFCQEDGKVICWLCERSQEHRGHHTFLTEEVAREYQVKLQAALEMLRQKQQEAEELEADIREEKASWKTQIQYDKTNVLADFEQLRDILDWEESNELQNLEKEEEDILKSLTNSETEMVQQTQSLRELISDLEHRLQGSVMELLQGVDGVIKRTENVTLKKPETFPKNQRRVFRAPDLKGMLEVFRELTDVRRYWVDVTVAPNNISCAVISEDKRQVSSPKPQIIYGARGTRYQTFTFVNFNYCTGILGSQSITSGKHYWEVDVSKKTAWILGVCAGFQPDAMCNIEKNENYQPKYGYWVIGLEEGVKCSAFQDSSFHTPSVPFIVPLSVIICPDRVGVFLDYEACTVSFFNITNHGFLIYKFSHCSFSQPVFPYLNPRKCGVPMTLCSPSS [human TRIM5α, 2-codon duplication at 338] | 1.03 ± 1.3 |

± gives the standard deviation of the averaged measurements. Restriction of a single-cycle SIVsab GFP reporter by TRIM5α v1-loop variants in CRFK cells. Human variants: read share among cells still uninfected after two challenges over input, higher = gained restriction. Rhesus variants: share among infected cells over input, higher = lost restriction. Reporter dose not given per row. No active / inactive call per row; the paper calls a change when both replicates lie above its controls (mean + 2 SD of stop or wild-type variants, or the top frameshift score). Residues outside the varied loop are taken from Swiss-Prot. The paper reads the human single-substitution scores as noise; they and the rhesus combinations repeat poorly (rank correlation 0.3 to 0.4), indel scores repeat only for the top variants, rhesus substitutions well (0.9).
